{"source": "PubChem BioAssay AID1671194", "about": "(National Center for Advancing Translational Sciences (NCATS), 2021)", "note": "Among all 140,000 compounds or so, about 240 (0.17%) were called active. The shares of active, inactive and inconclusive entries below differ from those in the screen. The call rests on the fitted dose curve; in most records, active means well fitted inhibition curve with a large enough effect; inconclusive means small, poorly fitted or top-dose-only effect; inactive means no such curve, though single readings can be large or run the other way. Potencies beside an inconclusive call are fits to weak or partial responses and may not hold up. Potency means the concentration at half of the fitted maximal effect; tags describe the fitted curve by direction and shape."}
{"test": "Primary qHTS assay for inhibitors of alpha-synuclein gene (SNCA) expression; further: nearly all actives have a fitted effect of over 45% in size", "details": "HEK-293 SNCA-luciferase knock-in, luminescence, 24 h; series mostly up to 57.2 µM"}
{"smiles": "COc1ccc(C(C)C)cc1S(=O)(=O)NCCc1c(C)[nH]c2ccc(C)cc12", "Potency": "inconclusive: 39.8 µM [inhibitor, single point]"}
{"smiles": "Cc1ccccc1C(=O)N1CCN(C(=O)c2nc3cccnc3n(C3CCCC3)c2=O)CC1", "Potency": "inactive"}
{"smiles": "Cc1cccc(-c2noc(-c3nnn4c3COC(c3ccc(F)cc3)C4)n2)c1", "note": "(centres undefined)", "Potency": "inactive"}
{"smiles": "CO[C@@H]1COCC[C@H]1NC(=O)c1cccc(Oc2ccccc2)c1", "Potency": "inconclusive: 6.31 µM [inhibitor, single point]"}
{"smiles": "COc1ccc(C(=O)N(Cc2cc(OC)c(OC)c(OC)c2)CC2CCCO2)cc1", "note": "(centres undefined)", "Potency": "inactive"}
{"smiles": "Cc1ccc(-c2ccccc2CN2CCC(C(=O)N3CCN(c4ncccn4)CC3)CC2)cc1Cl", "Potency": "inconclusive: 39.8 µM [inhibitor, single point]"}
{"smiles": "CN1CC(=O)N(c2ccccc2F)Cc2c(NC3CCNCC3)ncnc21", "Potency": "inactive"}
{"smiles": "COCCCNC(=O)c1c(NC(=O)Cc2coc3cc(C)cc(C)c23)sc2c1CCCC2", "Potency": "inconclusive: 39.8 µM [inhibitor, single point]"}
{"smiles": "COCCCn1c(=O)c(C(=O)N2CCN([S+](=O)([O-])c3cccc(C(F)(F)F)c3)CC2)nc2cccnc21", "Potency": "inconclusive: 25.1 µM [inhibitor, single point]"}
{"smiles": "COc1ccc2[nH]cc(CCNC(=O)C3(Cc4ccccc4)CCCCC(=O)N3)c2c1", "note": "(centres undefined)", "Potency": "inconclusive: 1.41 µM [inhibitor, full curve, poor fit]"}
{"smiles": "CN1CCCC2(Cc3ccccc3CN([S+](=O)([O-])c3ccccc3)C2)C1", "note": "(centres undefined)", "Potency": "inconclusive: 3.55 µM [inhibitor, full curve, poor fit]"}
{"smiles": "CNC(=O)CCn1ncc2cc(OC3CCc4cccc(-c5cccc(OC)c5)c43)ccc21", "note": "(centres undefined)", "Potency": "inconclusive: 3.55 µM [inhibitor, partial curve, poor fit]"}
{"smiles": "Cc1cccc(C(=O)NCc2nnc3cc(-c4nc(C5CC5)no4)ccn23)c1", "Potency": "inconclusive: 14.1 µM [inhibitor, partial curve, poor fit]"}
{"smiles": "Cc1nn(-c2ccccc2[N+](=O)[O-])c(C)c1[C@@H]1C=C[C@@H](NC(=O)Nc2cccc(C#N)c2)C1", "Potency": "inconclusive: 22.4 µM [inhibitor, partial curve, poor fit]"}
{"smiles": "CCCCn1c(=O)c(C(=O)N2CCN(C(=O)c3ccc(C(F)(F)F)cc3)CC2)nc2cccnc21", "Potency": "inconclusive: 35.5 µM [inhibitor, single point]"}
{"smiles": "COc1ccc(-c2cc3c(=O)n(CCNC(=O)c4ccsc4)ccn3n2)cc1", "Potency": "inactive"}
{"smiles": "Cc1noc(C)c1C(=O)N1CCC2(CC1)CN(C(=O)c1ccc(Cl)cc1)CCO2", "Potency": "inconclusive: 31.6 µM [inhibitor, single point]"}
{"smiles": "COc1cc(NS(C)(=O)=O)ccc1Nc1c2ccccc2nc2ccccc12", "Potency": "inconclusive: 1.26 µM [inhibitor, full curve, poor fit]"}
{"smiles": "COc1ccccc1CNC(=O)CN1C(=O)COc2ccc(S(=O)(=O)N3CCCCC3)cc21", "Potency": "inconclusive: 2.24 µM [inhibitor, full curve]"}
{"smiles": "Cc1nc2ccccc2n1CCC(=O)N1CC[C@H](CO)[C@@H](O)C1", "Potency": "inactive"}
{"smiles": "O=C(c1ccc(Br)o1)N1CCCN(c2cc(-c3ccc(Cl)cc3)[nH]n2)CC1", "Potency": "inactive"}
{"smiles": "COc1cccc(CC(=O)N2CCCC(c3nc(CCOCC4CCCC4)no3)C2)c1", "note": "(centres undefined)", "Potency": "inconclusive: 8.91 µM [inhibitor, single point]"}
{"smiles": "COc1ccc(C2=NOC3(CCN([S+](=O)([O-])c4cccc(OC)c4)C3)C2)cc1", "note": "(centres undefined)", "Potency": "inconclusive: 3.16 µM [inhibitor, full curve]"}
{"smiles": "O=C1N(Cc2ccc(F)cc2)CCCC12CCN(CC1CCCC1)C2", "note": "(centres undefined)", "Potency": "inconclusive: 39.8 µM [inhibitor, single point]"}
{"smiles": "COc1ccc(CN2Cc3cc(NC(=O)Cc4ccccc4)ccc3OC(C)C2=O)cc1", "note": "(centres undefined)", "Potency": "inactive"}
{"smiles": "Cc1nc(-c2c3n(c(=O)n(CC(=O)NCc4ccc5c(c4)OCO5)c2=O)CCCC3)no1", "Potency": "inactive"}
{"smiles": "COC(=O)[C@@H]1Cc2ncn(Cc3ccc(OC)cc3)c2CN1CCCc1ccccc1", "Potency": "inconclusive: 44.7 µM [inhibitor, partial curve, poor fit]"}
{"smiles": "Cn1nc(C(=O)N2CCC3(CCCNC3)C2)c2ccccc21", "note": "(centres undefined)", "Potency": "inconclusive: 8.91 µM [inhibitor, single point]"}
{"smiles": "CCN(C(=O)c1oc2ccc(S(=O)(=O)N3CCCCCC3)cc2c1C)c1ccccc1", "Potency": "inconclusive: 39.8 µM [inhibitor, single point]"}
{"smiles": "CN(CC(=O)Nc1cccc(C(F)(F)F)c1)S(=O)(=O)c1ccc2[nH]c3c(c2c1)CCCC3", "Potency": "inconclusive: 39.8 µM [inhibitor, partial curve, poor fit]"}
{"smiles": "CC(C)c1ccc(-c2nc(C3CC(=O)N(c4ccc(F)c(Cl)c4)C3)no2)cc1", "note": "(centres undefined)", "Potency": "inactive"}
{"smiles": "Cc1ccc(C)c(N2CCN(C(=O)c3ccc(CS(=O)(=O)c4ccc(Br)cc4)o3)CC2)c1", "Potency": "inconclusive: 39.8 µM [inhibitor, single point]"}
{"smiles": "O=C(Nc1ccccc1)N1CCC(c2nc(CCOc3ccc(F)cc3)no2)C1", "note": "(centres undefined)", "Potency": "inconclusive: 25.1 µM [inhibitor, single point]"}
{"smiles": "CC(=O)NC1(C)CCCN(Cc2cc(-c3c(C)noc3C)cs2)C1", "note": "(centres undefined)", "Potency": "inactive"}
{"smiles": "COc1ccc(-c2ccnc3nc(C4CCCO4)nn23)c(F)c1", "note": "(centres undefined)", "Potency": "inactive"}
{"smiles": "CCOc1ccc(-c2ccnc(NC[C@@H]3CCCO3)n2)cc1C(=O)O", "Potency": "inconclusive: 6.31 µM [inhibitor, single point]"}
{"smiles": "CN1CCc2c(sc3c2C(=O)NC(c2ccc(OC(=O)c4ccc(C(C)(C)C)cc4)cc2)N3)C1", "note": "(centres undefined)", "Potency": "active: 1 µM"}
{"smiles": "COc1cccc(CNC(=O)c2cc(-c3cccs3)c3cccn3n2)c1", "Potency": "inactive"}
{"smiles": "O=S(=O)(c1ccccc1)N1CCC(OC2CCN(Cc3cccnc3)CC2)CC1", "Potency": "inconclusive: 8.91 µM [inhibitor, single point]"}
{"smiles": "COc1ccccc1C(=O)N1CCCN(C)c2ccccc21", "Potency": "inconclusive: 8.91 µM [inhibitor, single point]"}
{"smiles": "COc1ccc(-c2cc3nc(C)c(CCC(=O)Nc4ccccc4C(C)=O)c(C)n3n2)c(OC)c1", "Potency": "inconclusive: 20 µM [inhibitor, single point]"}
{"smiles": "Cc1ccc(C)c(N2CCN(C(=O)C3CCN(c4nc5ccc(C)cc5[nH]4)CC3)CC2)c1", "Potency": "inconclusive: 15.8 µM [inhibitor, partial curve, poor fit]"}
{"smiles": "COC(=O)[C@H](NC(=O)[C@@H]1C[C@@H](NC(=O)Nc2cccc(F)c2)CCN1C(=O)CCC(=O)O)C(C)C", "Potency": "inconclusive: 25.1 µM [inhibitor, single point]"}
{"smiles": "CCCc1noc(-c2cn(C3CCN(C(=O)c4sccc4C)CC3)nn2)n1", "Potency": "inactive"}
{"smiles": "O=C(COc1ccccc1)N1C[C@@H]2C[C@H](C1)c1ccc(-c3cccc(C(F)(F)F)c3)c(=O)n1C2", "Potency": "inactive"}
{"smiles": "CCN1c2cc(C(=O)Nc3cccc(C)c3)ccc2C(=O)N2CCCCC21", "note": "(centres undefined)", "Potency": "inactive"}
{"smiles": "O=C(c1ccc(F)cc1)N1Cc2[nH]cnc2C[C@H]1c1nc(-c2ccc3c(c2)OCO3)no1", "Potency": "inconclusive: 12.6 µM [inhibitor, partial curve, poor fit]"}
{"smiles": "O=C(C1CC=CC1)N1CCC([C@@H]2CNC[C@H]2CO)CC1", "Potency": "inconclusive: 39.8 µM [inhibitor, single point]"}
{"smiles": "Cc1cc(C(=O)NCC(C)C)c2c(C3CCCN3)noc2n1", "note": "(centres undefined)", "Potency": "inactive"}
{"smiles": "COCc1cc(=O)n(CC(=O)N2CCN(c3ccc(F)cc3)CC2)c(N2CCOCC2)n1", "Potency": "inactive"}
{"smiles": "O=C(NCCc1ccc(Cl)cc1)c1ccc2nnc(C3CCCC3)n2c1", "Potency": "inactive"}
{"smiles": "O=C1CC(c2ccccc2)N(Cc2ccncc2)CCCN(C(=O)COc2ccc(F)cc2)CCN1", "note": "(centres undefined)", "Potency": "inactive"}
{"smiles": "O=C(NCCc1ccncc1)c1ccc(-c2nnc3ccc(NC(=O)C4CCC4)cn23)cc1", "Potency": "inactive"}
{"smiles": "CN(C(=O)c1cnc2n[nH]c(-c3ccccc3)c2n1)c1ccccc1", "Potency": "inconclusive: 0.891 µM [inhibitor, full curve, poor fit]"}
{"smiles": "COc1cccc(CN2CCC3(CC2)OC(=O)N(Cc2ccccc2)C3(C)c2ccccc2)c1", "note": "(centres undefined)", "Potency": "inconclusive: 5.62 µM [inhibitor, partial curve, poor fit]"}
{"smiles": "CN1CCc2c([nH]c3ccccc23)C12CCN(S(=O)(=O)c1cn(C)cn1)CC2", "Potency": "inconclusive: 39.8 µM [inhibitor, single point]"}
{"smiles": "CCc1ccc(NC(=O)CCn2nc(-c3ccccc3OC)c3c(C)cc(C)nc32)cc1", "Potency": "inconclusive: 15.8 µM [inhibitor, single point]"}
{"smiles": "Cc1ccc(-c2nnc(Nc3cccc(O)c3)c3ccccc23)cc1S(=O)(=O)N1CCOCC1", "Potency": "inconclusive: 3.98 µM [inhibitor, full curve]"}
{"smiles": "Cc1ccc(-n2ncc(C(=O)NCc3cccs3)c2C2CCN(C(=O)OC(C)(C)C)CC2)c(C)c1", "Potency": "inconclusive: 14.1 µM [inhibitor, single point]"}
{"smiles": "CCC(Sc1nc2cc(OC)c(OC)cc2c2nc(-c3ccccc3)nn12)C(=O)Nc1cccc(C)c1", "note": "(centres undefined)", "Potency": "inconclusive: 20 µM [inhibitor, single point]"}
{"smiles": "COc1ccc2cc(C3CN(Cc4nc(C(N)=O)no4)CCO3)ccc2c1", "note": "(centres undefined)", "Potency": "inactive"}
{"smiles": "CC(C)(C)c1cc(C[C@@H]2C[C@H](NCc3ccccn3)C2(C)C)no1", "Potency": "inactive"}
{"smiles": "CCCN(CC1CCOC1)S(=O)(=O)Cc1ccccc1", "note": "(centres undefined)", "Potency": "inconclusive: 6.31 µM [inhibitor, single point]"}
{"smiles": "O=C(C[C@@H]1CCNC[C@@H]1Cc1cc(CN2CCCCC2)on1)N1CCCCC1", "Potency": "inconclusive: 15.8 µM [inhibitor, partial curve, poor fit]"}
